The results in this text go back to the supplement of paper PMC12632987.

The full ranking holds about 4,500 sequences; the median of “median log2 fold change of GCK-ALFA target abundance (FLAG IP / Myc IP barcode read proportion)” is about 0.078, and the lowest 2% start at about -0.6. The list shows a part of the results.

The chains are these.
B1: GBRAP_83_6931 (protein)
chain: KEKITVAGAGDSIPEAFAAAIDLHKEDGYEVDLELIARREDLPTILAEFERVAAAGVDTDLDILLEGATPEEAAALQARLEAIAARHGVDVDVTVTVVEP
B2: GBRAP_83_6907 (protein)
chain: AEKIAVAAPADHAVEMADAVIDLTKEEGYEVEVEILATKEEKEKVKEAVEKLAKAGVETEVTVYLFGATEEEAEELKKELEEIAKKYGTNIKINVELIEE
B3: GBRAP_160_4586 (protein)
chain: SEELEKAKKIVEEEFEEAKEMIKGQTAEQRAVIVLGAGGRIIMELEELEEATDELLDFVDEVFDELAATILANPDLTDEELVALIDEAREKILEALEKHF
B4: GBRAP_139_3720 (protein)
chain: SAKEKVIEEVKKIVKENKDNLEKLAKLVAEKIAEVDDETALEIARAAAEELKDKSWEEFEEFLELVEKELKKLGFDEDRVLAIAGEFEAVRAKIELAKLE
B5: GBRAP_52_5898 (protein)
chain: AKERLVELLLAAARAVEAGDEERAKALIREAIKEGAKLTPEEVREAVEEAAKRLAGLPQEVKERLLELVLEVYDEDDDLTDEERAVLGEIAAALAKLILA
B6: GBRAP_11_2690 (protein)
chain: KKEKLKEIAELAEKLAEVLAELLEVGVDNEELLEEAERLLEELEKLVEEHADEGMKKLARILREEFEKALEDPENAEEHVQEALAIARVLAGNALLEIEE
B7: GBRAP_128_3233 (protein)
chain: MPEELKAKVEALIDTIINGDVAEAAAATAELVALMGEVSLEEAEEIAKMVIEALKKLTVEKLETVADTIEANRGTLDPEKQNLANDVLIEALNLAEEKEE
B8: GBRAP_160_4753 (protein)
chain: SEELKKLKEEVKEIFEEGIKMLKEVPASEAPTVLRGTMGEVLMLVFSSEAASDELEEKVGEIADEAEKKADANADAPVEYHIELLKEAEKKVLETIEKEI
B9: GBRAP_160_4249 (protein)
chain: SERIEEIREEIEEEAEVLLEALLESPRSQWPAFARAMAGDIVQIVIEDPLATDEMEEKVDELAEEMAERLVAAADASPEELRALLREGVERIVKAIEELL
B10: GBRAP_42_5727 (protein)
chain: KYKVTLELYVETKEELERAVEIWKELNKKALEEYDIIIELRVAAPEEAEELAEEVNKESEELAKEATEESDWVVVAGSADQVEDAIKAAVDLALEEIKER
B11: GBRAP_128_3201 (protein)
chain: VSPEAVEELRKLAEEVIKTKTDEAIKEFAEAVAKALKAGKIDLDTLEEIVRELGKGLTPDDIAKAADALDEALADVGAEARAVALGELGEEIMEKEEEEE
B12: GBRAP_11_2608 (protein)
chain: KKEILKELAELAEKAAETVERLLEVGVDDEELLKEIRELIEKLAELVEKHGDEADKTDVEVIRELWEEALRDPENQREYLEQLLAALRVFSGNYLLEIEE
B13: GBRAP_160_4140 (protein)
chain: KEELEKLIKEIREIAEEAIELIKDESREEAKTIAKVALGEIVMLVMSNEAVSEETEEKVGEIMREAEEELEENEDATNEEIIELLRKAAEEVIKILKEEI
B14: GBRAP_128_3307 (protein)
chain: MDEELLEEARELIERLKEADEEEAAELVREIAELLEKATPEEREEIAELFEEALKELSAEKLDVVADTLRELIPKATPETANVLADLQVEALNLAEEKEE
B15: GBRAP_139_3763 (protein)
chain: DETEKKVEEARELTKKLIEGDEEAAKELAKLAKSVDDETLRKIADAIREALKGQDPDTIAKVEDLLEKEMKEVGASEETILLISGAITEAEAEAIVAELA
B16: GBRAP_52_5907 (protein)
chain: MKEELEKILNEIIEAVKAGKLEEARKIARELAEKYDDETLEEFIELFAEMVLEAPEEDLPYYWKAAEILAEEFEREGKDEVLADLLLSRTAAAIYEKLQR
B17: GBRAP_84_7002 (protein)
chain: ASEEEILKITKEILKKSSIKLKQLLLTYLILKNVNKAATLALNDLMKRDIEAAAEALDLATEAYEEGKEEEVKKELLEEAKKEGEEVYKLVEELIKAIES
B18: GBRAP_84_7005 (protein)
chain: SREEEIVEITAEILEKASIETKALLLTYLILKNANKAATLALNDLLEEDPEAAVEALDRATEAYEEGKEEEVEKELLEKAKEEGEELAELVERLLELLKE
B19: GBRAP_52_6178 (protein)
chain: MRERMRKLVEEIVALARAGDEEGAKKLIRELAKTLNDEELKIFADEFARLVLASPLEELDLLADLLDTIEEILEEEGVDPRIIAYIRGKFATAAYQREQA

GABARAP, O95166, sequence (O95166 whole entry, the tested form may be a part): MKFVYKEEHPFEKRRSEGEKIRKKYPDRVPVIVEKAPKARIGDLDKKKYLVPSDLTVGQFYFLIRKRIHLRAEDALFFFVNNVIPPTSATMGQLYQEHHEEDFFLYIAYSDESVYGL

The target of this assay is GABARAP, O95166. Put plainly: median log2 fold change of GCK-ALFA target abundance (FLAG IP / Myc IP barcode read proportion) (log2 ratio); each designed protein is fused to an ALFA-tag nanobody in HEK293 cells to bring the named protein to FLAG-tagged glucokinase (GCK); Myc marks an untargeted standard; higher = target protein stabilised (more abundant). To be noted: target protein: 3xFLAG-MCP-GCK-ALFA reporter; HEK293 landing pad (RPLP). In a few lines:
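Binders fused to an ALFA nanobody were recombined as a library into HEK293 landing-pad cells, which were induced with 2 μg mL^−1 doxycycline and then transfected to express a FLAG-tagged target and a Myc-tagged standard. After 48 h, circular RNA barcodes recovered by anti-FLAG and anti-Myc immunoprecipitation of lysates were reverse transcribed, amplified and sequenced. Each binder's target abundance is the median log2 ratio of FLAG to Myc barcode read proportions, from barcodes present at ≥10^−7 in both replicates, binders carrying ≥3 barcodes per replicate, a 10^−6 pseudocount and pooled replicates.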
Regarding B1, the “median log2 fold change” value came out at 0.0959. For B2, the “median log2 fold change” value was 0.21.

For B3, the “median log2 fold change” value is -0.128.

Take B4: the “median log2 fold change” value is 0.00762.

As to B5, the “median log2 fold change” value was -0.116. Turning to B6, the “median log2 fold change” value was determined as 0.0639.

Turning to B7, the “median log2 fold change” value is 0.352. Under B8 stands 0.295. As for B9, the figure is -0.175; as for B10, 0.485; as for B11, 0.315. Under B12 stands 0.145; under B13, 0.101; under B14, 0.0926. Regarding B15, the “median log2 fold change” value is 0.227. As for B16, the figure is -0.881.

As to B17, the “median log2 fold change” value is -0.516. Turning to B18, the “median log2 fold change” value is -0.259. Under B19 stands -0.00387.
